The assay concerns Trichoderma virens ATCC 9645. The experiment in a line: growth yield (OD600) with compound + IPBC relative to untreated control; higher = less growth inhibition. To be noted: compound concentration: 100 uM, IPBC concentration: 200 ng/ml. In outline:
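For each 96-well plate, 100 μl aliquots were prepared with Trichoderma virens ATCC 9645 spores suspended at 15,000 spores ml^−1 in potato dextrose broth. The spores had been harvested from potato dextrose agar plates after 7 days. Library compounds were present at 100 μM final, some wells also receiving a biocide at 200 ng ml^−1, and plates were grown at 30 °C with OD600 read on a BioTek EL800 at 40 h and 72 h. Reported growth, relative to the control lacking both agents, is the mean of duplicate screens.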

SMILES strings stand for the structures. Where a name gives a salt, the structure may show the parent alone. ± gives the standard error. Out of some 1,300 compounds screened, about 130 (10%) showed an effect of 50% or more. The entries are a selection whose mix differs from that of the whole data set.

Turning to `CO[C@@]1(NC(=O)Cc2cccs2)C(=O)N2C(C(=O)O)=C(COC(N)=O)CS[C@@H]21` [Cefoxitin sodium salt] + CCCCNC(=O)OCC#CI [3-iodo-2-propynyl butylcarbamate (IPBC)], the growth yield came to 100 ± 15% (40 h) and 98.3 ± 7.2% (72 h).

On to `CC(=O)c1ccc2c(c1)N(CCCN1CCC(CCO)CC1)c1ccccc1S2` [Piperacetazine] + CCCCNC(=O)OCC#CI [3-iodo-2-propynyl butylcarbamate (IPBC)], for which the growth yield (40 h) is 55% and the growth yield (72 h) came to 94.8%. Take `COc1cc(Cc2cnc(N)nc2N)cc(OC)c1OC` [Trimethoprim] + CCCCNC(=O)OCC#CI [3-iodo-2-propynyl butylcarbamate (IPBC)]: the growth yield by setting is: (40 h) 83.1 ± 2.7%; (72 h) 91 ± 1.7%. Regarding `COCC1=C(C(=O)OC(C)OC(=O)OC(C)C)N2C(=O)[C@@H](NC(=O)/C(=N\OC)c3csc(N)n3)[C@H]2SC1` (some centres undefined) [Cefpodoxime proxetil] + CCCCNC(=O)OCC#CI [3-iodo-2-propynyl butylcarbamate (IPBC)], the growth yield (40 h) stood at 121 ± 3.5% and the growth yield (72 h) turned out to be 113.6 ± 0.94%. For `CCN(CC)CCOC(=O)C(c1ccccc1)C1CCCCC1` (centres undefined) [Drofenine hydrochloride] + CCCCNC(=O)OCC#CI [3-iodo-2-propynyl butylcarbamate (IPBC)], in that order: 81.96 ± 0.64% and 93.13 ± 0.63%. As to `Cn1ccnc1S` [Methimazole] + CCCCNC(=O)OCC#CI [3-iodo-2-propynyl butylcarbamate (IPBC)], the growth yield by setting is: (40 h) 120 ± 16%; (72 h) 111 ± 12%.

As to `CC(C)(Sc1cc(C(C)(C)C)c(O)c(C(C)(C)C)c1)Sc1cc(C(C)(C)C)c(O)c(C(C)(C)C)c1` [Probucol] + CCCCNC(=O)OCC#CI [3-iodo-2-propynyl butylcarbamate (IPBC)], the growth yield was found to be 86.6 ± 5.9% (40 h) and 94.7 ± 4.1% (72 h). Taken in the same sequence, the figures for `CCN1C(=O)NC(c2ccccc2)C1=O` (centres undefined) [Ethotoin] + CCCCNC(=O)OCC#CI [3-iodo-2-propynyl butylcarbamate (IPBC)] were 85 ± 3% and 87 ± 2.1%.

As for `CN1CCC(=C2c3ccccc3CC(=O)c3sccc32)CC1` [Ketotifen fumarate] + CCCCNC(=O)OCC#CI [3-iodo-2-propynyl butylcarbamate (IPBC)], the growth yield (40 h) is 87.5 ± 11% and the growth yield (72 h) stood at 95.2 ± 2.5%. For `CN1CCCC(CC2c3ccccc3Sc3ccccc32)C1` (centres undefined) [Metixene hydrochloride] + CCCCNC(=O)OCC#CI [3-iodo-2-propynyl butylcarbamate (IPBC)], the growth yield (40 h) was 48.9 ± 2.2%. As for `COc1ccccc1N1CCN(CC(O)COc2cccc3ccccc23)CC1` (centres undefined) [Naftopidil dihydrochloride] + CCCCNC(=O)OCC#CI [3-iodo-2-propynyl butylcarbamate (IPBC)], the growth yield by setting is: (40 h) 64.81 ± 0.32%; (72 h) 97.5 ± 2.7%. Turning to `C[C@@H]1CN([C@H]2CC[C@](C#N)(c3ccc(F)cc3)CC2)CC[C@]1(C(=O)O)c1ccccc1` [Levocabastine hydrochloride] + CCCCNC(=O)OCC#CI [3-iodo-2-propynyl butylcarbamate (IPBC)], the growth yield was 118 ± 11% (40 h) and 111 ± 7.3% (72 h). Taken in the same sequence, the figures for `CCCN(CCC)C(=O)C(CCC(=O)O)NC(=O)c1ccccc1` (centres undefined) [Proglumide] + CCCCNC(=O)OCC#CI [3-iodo-2-propynyl butylcarbamate (IPBC)] were 93.6 ± 5.9% and 99.4 ± 3.8%. Taken in the same sequence, the figures for `COc1cc(OC)c(C(=O)CCCN2CCCC2)c(OC)c1` [Buflomedil hydrochloride] + CCCCNC(=O)OCC#CI [3-iodo-2-propynyl butylcarbamate (IPBC)] were 82.6 ± 2.9% and 88.4 ± 1.8%. Take `N#CC(c1ccc(Cl)cc1)c1c(Cl)cc(-n2ncc(=O)[nH]c2=O)cc1Cl` (centres undefined) [Diclazuril] + CCCCNC(=O)OCC#CI [3-iodo-2-propynyl butylcarbamate (IPBC)]: the growth yield is, setting by setting: (40 h) 61%; (72 h) 93.8 ± 12%. In the case of `CO[C@H]1C[C@H](O[C@H]2[C@H](C)[C@@H](O[C@@H]3O[C@H](C)C[C@H](N(C)C)[C@H]3OC(C)=O)[C@@H](C)C[C@@]3(CO3)C(=O)[C@H](C)[C@@H](OC(C)=O)[C@@H](C)[C@@H](C)OC(=O)[C@@H]2C)O[C@@H](C)[C@@H]1OC(C)=O` [Troleandomycin] + CCCCNC(=O)OCC#CI [3-iodo-2-propynyl butylcarbamate (IPBC)], the growth yield is, setting by setting: (40 h) 89.59 ± 0.32%; (72 h) 92.29 ± 0.84%. For the molecule `Cc1cc(C(=O)NNCc2ccccc2)no1` [Isocarboxazid] + CCCCNC(=O)OCC#CI [3-iodo-2-propynyl butylcarbamate (IPBC)], the growth yield runs as follows: (40 h) 102 ± 6.2%; (72 h) 99.3 ± 3.2%. For `C=CCC1(CC(C)C)C(=O)NC(=O)NC1=O` [Butalbital] + CCCCNC(=O)OCC#CI [3-iodo-2-propynyl butylcarbamate (IPBC)], in that order: 85.6 ± 1.4% and 93.2 ± 0.94%. `O=C(CCCN1CCC(n2c(=O)[nH]c3ccccc32)CC1)c1ccc(F)cc1` [Benperidol] + CCCCNC(=O)OCC#CI [3-iodo-2-propynyl butylcarbamate (IPBC)]: the growth yield (40 h) was found to be 97.8 ± 13% and the growth yield (72 h) is 101 ± 8.9%. Taken in the same sequence, the figures for `CC(C)(Oc1ccc(Cl)cc1)C(=O)O` [Clofibric acid] + CCCCNC(=O)OCC#CI [3-iodo-2-propynyl butylcarbamate (IPBC)] were 102 ± 3.6% and 101.1 ± 0.42%. For `Cc1cc(=O)n(-c2ccccc2)n1C` [Antipyrine] + CCCCNC(=O)OCC#CI [3-iodo-2-propynyl butylcarbamate (IPBC)], in that order: 84.3 ± 4.6% and 87.2 ± 4.5%.

Turning to `Clc1ccc(COC(Cn2ccnc2)c2ccc(Cl)cc2Cl)c(Cl)c1` (centres undefined) [Miconazole] + CCCCNC(=O)OCC#CI [3-iodo-2-propynyl butylcarbamate (IPBC)], the growth yield is 2.8591 ± 3.6e-15% (40 h) and 2.41 ± 0.1% (72 h). Taken in the same sequence, the figures for `NC12CC3CC(CC(C3)C1)C2` [Adamantamine fumarate] + CCCCNC(=O)OCC#CI [3-iodo-2-propynyl butylcarbamate (IPBC)] were 95.3 ± 11% and 97.2 ± 7.5%.

On to `CC1CCc2c(N3CCC(O)CC3)c(F)cc3c(=O)c(C(=O)O)cn1c23` (centres undefined) [Nadifloxacin] + CCCCNC(=O)OCC#CI [3-iodo-2-propynyl butylcarbamate (IPBC)], for which the growth yield runs as follows: (40 h) 105 ± 7.6%; (72 h) 99.1 ± 6.8%. With `C[C@@H]1NC(=O)NC1=O` [Methylhydantoin-5-(L)] + CCCCNC(=O)OCC#CI [3-iodo-2-propynyl butylcarbamate (IPBC)], the growth yield (40 h) was 96.6 ± 12% and the growth yield (72 h) was 96.8 ± 6.4%.
